From the supplement of paper PMC10126150
Values marked as one replicate rest on one cluster of the flow cell; about a third of the high ones do not repeat.
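Note: ATP exposure 15 min at 22 °C before imaging.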

Each sequence was assayed on ATP (assay: switch fluorescence ratio, 500 uM ATP over buffer (Cy3 cluster intensity, sum of 5 cycles each) (fold (ratio)); higher = stronger signal-on switching upon ATP binding; sequences stand for … in TCGTCGGCAGCGTCAGATGTGTATAAGAGACAGTTTTTTTTTTTTTTTTTTTTTTTTT…TC). Conditions: aptamer strand: ATP DNA aptamer (quencher-CACCTGGGGGAGTATTGCGGAGGAAGG + anchor), 100 nM annealed; ATP concentration: 500 uM; one replicate.
How it was run: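 Switching-strand clusters labelled with Cy3 on a modified Illumina MiSeq flow-cell were annealed to 100 nM quencher-labelled ATP aptamer, imaged in selection buffer, and re-imaged after 15 min with 500 uM ATP at 22 °C. This was done over five cycles with NaOH stripping and re-annealing in between. The fluorescence ratio is summed target-cycle over summed buffer-cycle Cy3 intensity per cluster, averaged per switch-domain sequence, excluding clusters outside 100-1000 RFU.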
AGACGATGGC showed a switch fluorescence ratio of 1.06. AGACGCCCAT gave a switch fluorescence ratio of 1.21. With AGACGCTGTA the switch fluorescence ratio was 1.03. Sequence AGACGGACGG has a switch fluorescence ratio of 1.03. AGACGGCCA was tested, and the switch fluorescence ratio was 1.02. In the case of AGACGTCTGC, the switch fluorescence ratio is reported as 1.01. AGACTGTGGG showed a switch fluorescence ratio of 0.969. Sequence AGACTTAAAA has a switch fluorescence ratio of 1.03. Work on AGACTTTGAT yielded a switch fluorescence ratio of 1.01. AGAGAAAGTC was tested, and the switch fluorescence ratio was 1.02. AGAGACACCA showed a switch fluorescence ratio of 1.01. Sequence AGAGACATTA has a switch fluorescence ratio of 1.02. AGAGACCGTA showed a switch fluorescence ratio of 0.936. AGAGACGAGT gave a switch fluorescence ratio of 1.06. AGAGACTGG gave a switch fluorescence ratio of 0.995. Sequence AGAGAGCGTC has a switch fluorescence ratio of 0.925. AGAGAGTCTG showed a switch fluorescence ratio of 1.14. AGAGATCGAT showed a switch fluorescence ratio of 0.99. Sequence AGAGATGTAC has a switch fluorescence ratio of 1.09. In the case of AGAGATTTGT, the switch fluorescence ratio is reported as 1.01. AGAGCACCGG was tested, and the switch fluorescence ratio was 1. Sequence AGAGCATGTT has a switch fluorescence ratio of 0.973. Sequence AGAGCGATTT has a switch fluorescence ratio of 1.03. With AGAGCGGGCC the switch fluorescence ratio was 0.773. AGAGCGTGTC showed a switch fluorescence ratio of 1.06. Sequence AGAGGAAAGC has a switch fluorescence ratio of 1.01. Work on AGAGGCAGGC yielded a switch fluorescence ratio of 1.05. AGAGGCCGCT gave a switch fluorescence ratio of 1.11. For AGAGGCGAA, the switch fluorescence ratio was 0.989. AGAGGGACGC gave a switch fluorescence ratio of 0.939. For AGAGGGGAAC, the switch fluorescence ratio was 1.07. For AGAGGTGATT, the switch fluorescence ratio was 1.05. AGAGGTGGGA showed a switch fluorescence ratio of 1.02. For AGAGTAAAAA, the switch fluorescence ratio was 0.951. In the case of AGAGTACAGC, the switch fluorescence ratio is reported as 1.13. In the case of AGAGTACCTA, the switch fluorescence ratio is reported as 0.997. With AGAGTACGAA the switch fluorescence ratio was 1.03. AGAGTATTCG gave a switch fluorescence ratio of 1.33. Sequence AGAGTCCAGA has a switch fluorescence ratio of 0.947. Work on AGAGTCCCTG yielded a switch fluorescence ratio of 1.02. With AGAGTGATAG the switch fluorescence ratio was 1.01. In the case of AGAGTGGTTG, the switch fluorescence ratio is reported as 1.01. With AGAGTTGAAA the switch fluorescence ratio was 0.983. For AGAGTTGGG, the switch fluorescence ratio was 0.977. Sequence AGATACAGCT has a switch fluorescence ratio of 1.02. With AGATAGATTA the switch fluorescence ratio was 1. AGATAGCCGC showed a switch fluorescence ratio of 1.03. AGATAGCCGT showed a switch fluorescence ratio of 0.962. AGATAGGATT showed a switch fluorescence ratio of 1.01. Sequence AGATAGTAGA has a switch fluorescence ratio of 1.01. With AGATATATAG the switch fluorescence ratio was 0.998. AGATATATTG showed a switch fluorescence ratio of 0.993. Work on AGATATCTTG yielded a switch fluorescence ratio of 0.993. Sequence AGATATTCCA has a switch fluorescence ratio of 1.03. AGATCAGGTA was tested, and the switch fluorescence ratio was 1.01. For AGATCCGCCT, the switch fluorescence ratio was 1.06. Sequence AGATCCGGCC has a switch fluorescence ratio of 0.953. For AGATCGCAGG, the switch fluorescence ratio was 0.995. Sequence AGATCGCTA has a switch fluorescence ratio of 0.978. AGATCGGGAT was tested, and the switch fluorescence ratio was 0.963. Work on AGATCGGGT yielded a switch fluorescence ratio of 0.97. AGATCTGCTA gave a switch fluorescence ratio of 0.991. In the case of AGATGAAGTA, the switch fluorescence ratio is reported as 1.02. AGATGACCTC gave a switch fluorescence ratio of 1.01. AGATGACTGG showed a switch fluorescence ratio of 1.02. AGATGAGCAA showed a switch fluorescence ratio of 1.07. In the case of AGATGCAAGT, the switch fluorescence ratio is reported as 1.01. With AGATGCGCTC the switch fluorescence ratio was 1.01. Work on AGATGGTATT yielded a switch fluorescence ratio of 0.98. AGATGTCTAG was tested, and the switch fluorescence ratio was 0.987. AGATTAAGAG showed a switch fluorescence ratio of 0.982. AGATTACTTT showed a switch fluorescence ratio of 1.04. Work on AGATTAGGAA yielded a switch fluorescence ratio of 1.01. AGATTAGGGC was tested, and the switch fluorescence ratio was 0.982. Work on AGATTATGCG yielded a switch fluorescence ratio of 1. For AGATTCCAGT, the switch fluorescence ratio was 0.973. With AGATTCGAGA the switch fluorescence ratio was 1.02. For AGATTCGCCA, the switch fluorescence ratio was 0.994. In the case of AGATTCGGTA, the switch fluorescence ratio is reported as 0.988. Sequence AGATTCTCAT has a switch fluorescence ratio of 0.942. In the case of AGATTGACAC, the switch fluorescence ratio is reported as 1.01. In the case of AGATTGACCG, the switch fluorescence ratio is reported as 1.02. Sequence AGATTGAGGT has a switch fluorescence ratio of 1.01. With AGATTGCACC the switch fluorescence ratio was 1.02. Sequence AGATTGGTCC has a switch fluorescence ratio of 0.887.
